# According to PubChem BioAssay AID504832 (National Center for Advancing Translational Sciences (NCATS), 2011):
# Values joined by “and” are separate entries in the source; they are usually repeats but may differ in a detail not shown here. Identical values can stand only once. Hit rate of the full screen: of about 310,000 compounds, about 18,000 (5.8%) were called active. Inconclusive results, whose numbers are uncertain, are shown with a selection of clear calls. Calls come from the whole dose curve; as a rule, active = well fitted inhibition curve with a large enough effect; inconclusive = small, poorly fitted or top-dose-only effect, or another doubt; inactive = no such curve, though single readings can be large or run the other way. Potencies of inconclusive entries are doubtful fits and often do not repeat.
# Experiment: Primary qHTS for delayed death inhibitors of the malarial parasite plastid, 48 hour incubation
# Conditions: P. falciparum luciferase growth in erythrocytes; series mostly up to 28.7 µM; activity change, negative = inhibition: at the top concentration
# Summary of the method: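 A one-generation exposure of luciferase-tagged malaria parasites in RPMI 1640/Albumax erythrocyte culture, 37 C and 5% CO2. Inhibition is inferred from decreased luminescence after adding detection reagent.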
# % is set by controls: 0 for no effect and ±100 for the full control effect; potency is the fitted concentration of half-maximal effect; tags give direction and shape of the fitted curve.
Structure (SMILES),"activity change, negative = inhibition",Potency
CC(C)C(C)NC(=O)COC(=O)C1CCN(S(=O)(=O)c2ccc3c(c2)OCCO3)CC1 (stereo not drawn),inactive: 0.732%,–
Fc1ccc(-c2nnc3n2CCCCC3)cc1,–,"inconclusive: 18.5 µM [inhibitor, single point]"
Cc1cc(Cl)c(OCCOCCN2CCN(C)CC2)c(Br)c1,inactive: 0%,–
CCNc1sc(S(C)(=O)=O)nc1S(=O)(=O)c1ccc(Cl)cc1,–,"inconclusive: 13.1 µM [inhibitor, single point]"
Cc1ccc(C)n1-c1ccc(N2CCOCC2)cc1,–,active: 10.4 µM
Cc1ccc(CN(Cc2ccccc2)C(=S)NCC(=O)N2CCC3(CC2)OCCO3)o1,–,"inconclusive: 10.4 µM [inhibitor, single point]"
CCOC(=O)N1CCN(S(=O)(=O)c2ccc([N+](=O)[O-])cc2)CC1,–,"inconclusive: 0.415 µM [inhibitor, partial curve, poor fit]"
CCc1noc(C)c1C(=O)Oc1ccc(N(C)S(=O)(=O)c2ccc(C)c(C)c2)cc1,inactive: 5.45%,–
COc1ccc(/C=C/c2nc(-c3ccccc3)cc(=O)[nH]2)cc1,–,"inconclusive: 14.7 µM [inhibitor, partial curve, poor fit]"
Cc1ccc(NC(=O)NC2=NN(c3ccccc3)C(=O)/C2=C2/CCCN2C)cc1,inactive: 206%,–
CCCCNC(=S)N1CCn2cccc2C1c1ccc(F)cc1 (stereo not drawn),–,"inconclusive: 16.5 µM [inhibitor, partial curve, poor fit]"
O=C(COC(=O)c1cccnc1Cl)c1ccc2c(c1)OCCO2,inactive: 39.2%,–
C=CCn1c(-c2c(C)nc3cc(C)ccn23)n[nH]c1=S,inactive: 22.9%,–
O=C(CNc1ccc2ccccc2c1)N/N=C/c1ccccn1,–,"inconclusive: 20.8 µM [inhibitor, single point]"
Clc1cccc(CN2COc3c(cc(Cl)c4cccnc34)C2)c1,–,"inconclusive: 0.465 µM [inhibitor, full curve, poor fit]"
CCOC(=O)C1CCCN(C(=O)C2CCN(c3nnc(-n4cccc4)s3)CC2)C1 (stereo not drawn),–,"inconclusive: 11.7 µM [inhibitor, partial curve]"
COc1cccc(C(=O)Nc2cc(NC(=O)c3cccs3)ccc2C)c1OC,inactive: 18.9%,–
C[C@@H]1CCC(=O)N(CC[C@H](Sc2ccccc2)c2ccccc2)CC1,–,"inconclusive: 6.57 µM [inhibitor, partial curve, poor fit]"
CCOC(=O)Cn1c(S(=O)(=O)Cc2ccc(F)cc2)nc(-c2ccccc2)c1-c1ccccc1,–,active: 13.1 µM
COc1ccc(C(=O)NCCNc2nc3ccc(C)cc3cc2C#N)cc1,–,"inconclusive: 0.0415 µM [inhibitor, full curve, poor fit]"
CCOC(=O)c1sc(NC(=O)C2CC=CCC2C(=O)O)nc1C (stereo not drawn),–,"inconclusive: 2.33 µM [inhibitor, partial curve]"
CC(C)c1ccc2[nH]c(O)c(N=NC(=O)c3cccc(S(=O)(=O)N4CCCCC4)c3)c2c1,–,"inconclusive: 11.7 µM [inhibitor, single point]"
O=C(NCCCN1CCOCC1)c1ccc2c(c1)N(Cc1c(F)cccc1Cl)C(=O)c1ccccc1S2,–,"inconclusive: 7.38 µM [inhibitor, partial curve]"

Structure (SMILES),"activity change, negative = inhibition",Potency
CC(C)(C)SCCNC(=O)c1ccc(NS(C)(=O)=O)cc1,inactive: 48.3%,–
O=C1CC(SC(=Nc2ccccc2)Nc2ccccc2)C(=O)N1c1cccc(Cl)c1 (stereo not drawn),–,"inconclusive: 18.5 µM [inhibitor, single point]"
COc1ccc(NC(=O)CN(C)C(=O)CCC(=O)c2ccc(C)cc2)cc1,–,"inconclusive: 10.4 µM [inhibitor, partial curve, poor fit]"
O=C1C(Oc2ccc(Cl)cc2)C(c2ccc3c(c2)OCO3)N1CC1CCCO1 (stereo not drawn),–,"inconclusive: 14.7 µM [inhibitor, single point]"
Cc1cc(Cl)cc(C)c1OCCCCCn1ccnc1,–,"inconclusive: 5.86 µM [inhibitor, partial curve]"
CC(C)(C)NC(=O)[C@@H]1C[C@@H]2CCCC[C@@H]2CN1C[C@@H](O)[C@H](Cc1ccccc1)NC(=O)[C@H](CC(N)=O)NC(=O)c1ccc2ccccc2n1,–,"inconclusive: 15.1 µM [inhibitor, single point] and inconclusive: 10.4 µM [inhibitor, single point]"
COc1ccc(N(C)S(=O)(=O)c2cccc(C(=O)NC3CCCC3)c2)cc1,–,active: 10.4 µM
NC(=O)COC(=O)[C@H](Cc1ccccc1)NS(=O)(=O)c1ccc2c(c1)OCCO2,inactive: 18.6%,–
COc1ccc(/C=C/CN2CCC(CO)(Cc3ccccc3Cl)CC2)cc1,–,"inconclusive: 6.57 µM [inhibitor, partial curve, poor fit]"
O=C(CSc1nc(=O)n2ccccc2n1)NCc1ccc2c(c1)OCO2,–,"inconclusive: 18.5 µM [inhibitor, partial curve, poor fit]"
Cc1cc(C)c2nc(N(CCCN(C)C)C(=O)C3=COCCO3)sc2c1,–,active: 11.7 µM
CCOC(=O)CSc1nnc(NC(=O)CN2CCCCC2)s1,–,"inconclusive: 13.1 µM [inhibitor, single point]"
Cc1ccc(C)c(OCc2cc(C(=O)NC3CCN(Cc4ccccc4)CC3)no2)c1,–,"inconclusive: 11.7 µM [inhibitor, single point]"
COc1ccc(-n2nc(C(=O)NCC(=O)Nc3cccc(NC(C)=O)c3)c3ccccc3c2=O)cc1,–,"inconclusive: 9.28 µM [inhibitor, single point]"
CC(=O)Nc1ccc(S(=O)(=O)Nc2ccc(C)c([N+](=O)[O-])c2)cc1,–,"inconclusive: 1.31 µM [inhibitor, partial curve, poor fit]"
Cc1cccc(NC(=O)CCN2C(=O)C3C4CCC(C4)C3C2=O)c1C (stereo not drawn),inactive: -0.876%,–
CCC(C)NC(=O)c1cn(CC)c2cc(N3CCN(C)CC3)c(F)cc2c1=O (stereo not drawn),–,"inconclusive: 8.28 µM [inhibitor, partial curve, poor fit]"
CCN(C(=O)c1cccnc1SC)C12CC3CC(CC(C3)C1)C2,inactive: 4.61%,–
CCOC(CNc1ncnc2sc(-c3ccccc3)cc12)OCC,–,"inconclusive: 10.4 µM [inhibitor, single point]"
O=c1c2ccccc2nc(/C=C/c2cccc(Br)c2)n1CCCO,–,"inconclusive: 18.5 µM [inhibitor, single point]"
Cc1ccc(-n2c(CNc3ccc(F)cc3)nnc2SCC(=O)O)cc1,–,"inconclusive: 10.4 µM [inhibitor, single point]"
CCC(C)NCC(O)(c1ccc(Cl)cc1)c1ccc(Cl)cc1 (stereo not drawn),–,"inconclusive: 1.04 µM [inhibitor, full curve]"
Cc1ccc(OCCCC(=O)Nc2ccc(S(=O)(=O)Nc3cc(C)on3)cc2)cc1,–,"inconclusive: 16.5 µM [inhibitor, partial curve, poor fit]"

Structure (SMILES),"activity change, negative = inhibition",Potency
COc1cc(C)c(C)cc1S(=O)(=O)N1CCCCC1c1cccnc1 (stereo not drawn),–,"inconclusive: 11.7 µM [inhibitor, single point]"
CCCCCN(CCCCC)C(=O)C(CCC(=O)O)NC(=O)c1ccc(Cl)c(Cl)c1 (stereo not drawn),inactive: -0.951%,–
COc1ccc(-n2ncc3c(NCCCN4CCOCC4)ncnc32)cc1,inactive: 134%,–
COc1ccccc1Nc1nc(NCC2CCCO2)c2ccccc2n1 (stereo not drawn),–,"inconclusive: 18.5 µM [inhibitor, single point]"
CCOc1ccc(CCNC(=O)Cc2ccc(NC3=NC4CS(=O)(=O)CC4S3)cc2)cc1OCC (stereo not drawn),inactive: -0.179%,–
COc1ccc2nc(Nc3nc(CSc4ccc(C)cc4)cc(=O)[nH]3)nc(C)c2c1,–,"inconclusive: 4.15 µM [inhibitor, partial curve, poor fit]"
COc1cccc(NC(=S)N2CCN(C)CC2)c1,–,"inconclusive: 18.5 µM [inhibitor, single point]"
CCNC(=O)CSc1nc2cc(S(=O)(=O)Nc3ccc(OC)cc3)ccc2o1,–,"inconclusive: 18.5 µM [inhibitor, partial curve, poor fit]"
Cc1cc(SCNC(=O)c2ccccc2)nc(C(C)C)n1,inactive: 7.1%,–
Cc1ccc(C)c(CN2CCC(CNC(=O)CCc3nnc4ccc(N5CCCCC5)nn34)CC2)c1,–,"inconclusive: 10.4 µM [inhibitor, single point]"
COCCn1c(SCC(=O)NN2C(=O)NC(C)(c3ccccc3)C2=O)nnc1-c1ccncc1 (stereo not drawn),inactive: -20.4%,–
COc1cc(/C=N/NC(=O)/C(=C/c2ccccc2)CCO)ccc1O,–,"inconclusive: 10.4 µM [inhibitor, single point]"
COc1ccc(S(=O)(=O)NC(C)C(=O)NCc2ccccn2)cc1OC (stereo not drawn),inactive: 18.2%,–
CC(C)C[C@H](NC(=O)c1[nH]cnc1C(=O)Nc1ccccc1)C(=O)OC(C)(C)C,–,active: 13.1 µM
COc1cc(C2C(C(=O)/C=C/c3ccccc3)=C(O)C(=O)N2c2ccccn2)ccc1O (stereo not drawn),inactive: -0.182%,–
O=C(CN(Cc1ccco1)C(=O)Cn1nnc(-c2cccs2)n1)NCc1ccccc1,inactive: -28%,–
Cc1ccc(C(=O)CNc2nc3c(c(=O)[nH]c(=O)n3C)n2Cc2ccccc2)cc1,–,active: 13.1 µM
O=C(/C=C/c1ccc(S(=O)(=O)N2CCOCC2)cc1)NCc1ccc(Cl)cc1,–,"inconclusive: 5.22 µM [inhibitor, single point]"
COc1ccc(C(=O)Nn2c(SCC(=O)NCC3CCCO3)nc3ccccc3c2=O)cc1 (stereo not drawn),inactive: -0.294%,–
c1csc(-c2cn3ccc4ccccc4c3n2)c1,–,active: 0.262 µM
Cc1cc(NC(=O)CCSc2ccccc2)ccc1Br,inactive: 66.1%,–
COC(=O)C1=C(c2ccc(F)cc2OCc2ccccc2)C[C@@H]2CC[C@H]1N2C(=O)NCCOc1ccccc1Cl,–,active: 2.62 µM
